# Over roughly 33,000 sequences, “E-score (-0.5 to 0.5)” has its median near -0.04; the highest 2% begin near 0.36. The list shows a part of the results.
# Target: T1, Hmlalpha2 (UniProt P0CY09)
# T1 sequence: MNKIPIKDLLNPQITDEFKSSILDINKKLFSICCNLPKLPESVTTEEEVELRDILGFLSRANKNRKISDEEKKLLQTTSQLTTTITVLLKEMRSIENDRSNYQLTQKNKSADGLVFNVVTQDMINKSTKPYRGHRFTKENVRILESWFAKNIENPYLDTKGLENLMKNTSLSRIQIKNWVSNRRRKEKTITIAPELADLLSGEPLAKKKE
# Test: PBM E-score (8-mer binding enrichment) (E-score (-0.5 to 0.5)); higher = stronger / more preferred TF binding; most listed sequences are background and not binding sites
# Conditions: protein concentration: 200 nM; construct: GST-full length
# Procedure: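 Universal 'all 10-mer' protein binding microarrays (Agilent AMADID 015681) probed with GST-tagged S. cerevisiae TFs (full-length or DBD) made by in vitro transcription/translation (PURExpress), about 100-200 nM. Bound TF was detected with fluorescent anti-GST. Each ungapped 8-mer (which stands for itself and its reverse complement) is scored by the PBM enrichment score (E-score), a modified Wilcoxon-Mann-Whitney statistic from -0.5 to +0.5, computed with the Universal PBM Analysis Suite. Scale: above 0.35 generally sequence-specific binding.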
row,Sequence,PBM E-score
1,AGCTAGAT,0.0426
2,GGCCGTAA,-0.179
3,ATAGGAGA,0.0214
4,TACCGGTA,0.0309
5,GGGCTGTA,-0.141
6,AATGCGGA,-0.035
7,AGACGATA,-0.0129
8,AACCAAGT,0.163
9,CTGAGTCA,-0.142
10,ATGAGAGA,-0.0203
11,ATGTGACC,-0.15
12,CCATATGG,-0.251
13,AAGCAGGA,-0.0686
14,GGCCTTAA,0.00254
15,TCTGCCAA,-0.124
16,CGACTGGA,-0.372
17,GGTCCCAA,-0.209
18,CCCCCAGC,-0.388
19,CATACCGA,0.00368
20,AGACCTGC,-0.0816
21,AGTCTGCC,-0.184
22,AAGACTTA,0.202
23,AACCGAAA,0.145
24,AATCATCT,-0.0172
25,CCTGGTCA,-0.247

row,Sequence,PBM E-score
1,CACGCATG,0.219
2,AAGGCCCA,-0.33
3,AGATCGTG,0.0948
4,TTCTGCAA,0.0201
5,ATACGCAT,0.251
6,ATATGCTC,-0.131
7,CTATACGA,-0.0339
8,CACGGCGG,0.00128
9,ACCTATCA,-0.0857
10,AAGATAAG,0.0797
11,ACCTAGTA,0.0968
12,ATGAGTTA,-0.0116
13,AACGACTG,-0.204
14,CGCGGGTA,0.0735
15,TTCCAAAA,0.0576
16,ATACTAGA,0.124
17,CACCTACG,-0.0917
18,AGCTGCAT,-0.0342
19,AGTAGGAT,-0.0191
20,AAATTTCC,-0.0851
21,ACAAATGT,0.287
22,GAGGAAGA,-0.187
23,CAGCAAGG,-0.129
24,GTTCCATA,-0.146
25,CAGTGGCA,-0.209

row,Sequence,PBM E-score
1,CAGAATTA,0.0802
2,AGGGATGA,-0.29
3,CGAAGTAA,0.176
4,ATGGCCCC,-0.283
5,GCGATACA,0.186
6,ATATCAAT,0.206
7,ACATCTGA,-0.0848
8,CCGCGCTA,-0.0189
9,AATTGCAT,-0.0272
10,ATCCTCTG,-0.179
11,CTAGATAA,-0.0347
12,AACACTAG,0.0745
13,ACGTGTAT,0.402
14,ATACGGCA,0.103
15,ACTGTGCC,-0.0891
16,GGTTTAGA,-0.168
17,AAGATCCG,-0.207
18,CTAACGAC,0.0559
19,CGAGGCCC,-0.196
20,GGACAACC,-0.066
21,CCAACGTA,0.16
22,ATCCATGC,-0.126
23,CCCTGAGA,-0.329
24,TACGCAGA,0.265
25,TGAAACAA,0.0941

row,Sequence,PBM E-score
1,AACCTCCG,-0.0959
2,CGTAAGAC,0.053
3,TAGTATAA,0.232
4,AAAGCCCT,-0.223
5,GCGTCCCA,-0.195
6,ATCTGGGG,-0.267
7,GATGTGGC,-0.213
8,CTCGCGTA,0.22
9,CCAGGACC,-0.29
10,GTGTACCA,0.3
11,ATTCACTA,0.16
12,TATATCGA,0.0637
13,GAGCGGAC,-0.405
14,ACCATTAC,0.198
15,CCAACCCC,-0.0591
16,CAACGTGG,0.249
17,TGCACCCA,-0.121
18,CGAAAGCA,0.0341
19,CATTGTCA,0.139
20,GACTTCTC,-0.106
21,ATAGGGTC,-0.185
22,AGGTAGAC,-0.186
23,GTATGGGA,-0.211
24,GGATCTCA,-0.142
25,CGTGATAC,0.0362

row,Sequence,PBM E-score
1,AATGCGGC,-0.0778
2,GCAACTCC,-0.0764
3,CCTCCCTC,-0.267
4,GAACCCAA,-0.0846
5,ATCAGATG,0.0265
6,ATTTGACG,0.149
7,GGTTACAC,0.314
8,GAAATTGC,-0.102
9,CCCGAGAC,-0.172
10,AAACCACG,-0.0899
11,ACCTGCAC,-0.158
12,GGGGGAAC,-0.26
13,CATATCGC,-0.0679
14,CGGTGGTA,-0.0335
15,GTAGGTCA,-0.111
16,GACATCCA,-0.0937
17,GAGTTGGA,-0.151
18,GAGGCAGC,-0.254
19,GCCAATCA,-0.192
20,AGTCATTA,0.0219
21,AGGACTGA,-0.154
22,CGCTAAGC,0.184
23,ACAGAGAC,0.0124
24,ACACTCGC,0.0406
25,GCGACTTA,-0.0185

row,Sequence,PBM E-score
1,ACACGCTA,0.414
2,AGTCATGA,-0.108
3,CGATAAAG,-0.0396
4,CTCCGTAC,-0.191
5,AGCCAGAG,-0.243
6,AGGTCACC,-0.252
7,CAATGTAG,0.172
8,GACGTAGA,0.0476
9,ACCCAGCT,-0.187
10,ACGCCGGG,-0.144
11,AGATCATG,0.0318
12,AAGTGCAC,-0.0185
13,CCTGTCTC,-0.282
14,AATAATAC,0.205
15,TACAGGCA,0.167
16,GTGTACAC,0.415
17,AGGGCATA,-0.164
18,CGTGTTAC,0.41
19,GTGAGTAA,0.258
20,ATTGATTA,0.213
21,GTATAATA,0.368
22,ATTAAATC,0.173
23,GTCCTAAA,0.0308
24,ACCGGGGG,-0.342
25,ACGTCGCC,-0.0245

row,Sequence,PBM E-score
1,ACCCTTTG,-0.331
2,CCACCAGG,-0.268
3,AGTAGGGC,-0.0369
4,CGTTTTAC,0.301
5,AACGGGAT,-0.155
6,CTACGCCC,-0.211
7,CTATAAAC,0.124
8,TAGTTCGA,0.112
9,CTAGATTA,0.114
10,CAGTACGA,-0.014
11,TCCAACGA,0.0156
12,ACCGAAAC,-0.031
13,CTTAGGGC,-0.128
14,AGTGGTAG,-0.175
15,CAAAGTCG,0.0302
16,ATTGTGCC,-0.142
17,GCGCGAAC,-0.0057
18,ATGGTAGG,-0.138
19,GTAGCTCA,0.0324
20,TAACGACA,0.281
21,GATTCGGC,-0.0401
22,ATCAAAGA,-0.0111

# Reference: the supplement of paper PMC3334620
